Values joined by “and” are separate entries in the source; they are usually repeats but may differ in a detail not shown here. Identical values can stand only once. Over roughly 13,000 compounds, “IFI” has its median near 4; the highest 2% begin near 17. The list shows a part of the results.
experiment: GSK_TCMDC: Inhibition Frequency Index (IFI). The number of non-kinase HTS assays where a compound showed > 50 % inhibition, expressed as a percentage of the number of such assays in which the compound was tested (-0 is zero); type: functional

SMILES | IFI
O=C(/C=C/c1cc(F)cc(C(F)(F)F)c1)N1CCC(CN2CCC(c3c[nH]c4ccccc34)CC2)CC1 | 3.52%
Clc1ccc2nccc(N3CCC(CN4CCC(c5c[nH]c6ccccc56)CC4)CC3)c2c1 | 4.62%
CCC(C)CN1CCC(N(C)c2cc(NC(=O)c3ccc(F)cc3)ccn2)CC1 (stereo not given) | 5.56%
COc1ccc(NC(=S)NC(NC(=O)CF)C(Cl)(Cl)Cl)cc1[N+](=O)[O-] (stereo not given) | -0%
O=C(CCCCCc1ccccc1)NC1CCC(CN2CCC(c3c[nH]c4ccccc34)CC2)CC1 (stereo not given) | 5%
CN(c1cc(NC(=O)c2cccs2)ccn1)C1CCN(Cc2cccc(C#N)c2)CC1 | 6.98%
CC(=O)Nc1ccc(OCCN(CC(F)(F)F)c2ccc(C#N)cc2C(F)(F)F)cc1 | 2.96%
CC(C)CNCc1ccc(-c2cccc(CN(C(=O)NC3CCCCC3)C3CCN(Cc4ccccc4)CC3)c2)cc1 | 8.09%
O=C(NC1CCC(CN2CCC(c3c[nH]c4ccccc34)CC2)CC1)c1cc(-c2cccc(Cl)c2)n(-c2ccc(Cl)cc2Cl)n1 (stereo not given) | 7.75%
CC[C@H]1CN2CC[C@H]1C[C@H]2[C@H](O)c1ccnc2ccc(OC)cc12 | 0.73%
CC[C@H]1CN2CCc3cc(OC)c(OC)cc3[C@@H]2C[C@@H]1C[C@H]1NCCc2c1cc(OC)c(O)c2I | 9.6%
CCCCCCCCNCC(O)c1ccc(Cl)c(Cl)c1 (stereo not given) | 11.1%
O=C(NCc1ccc(S(=O)(=O)N2CCC(CN3CCC(c4c[nH]c5ccccc45)CC3)CC2)s1)c1ccccc1 | 6.85%
CN1C2CCC1c1cc(NC(=O)c3cc(-c4ccc(Cl)cc4)cs3)ccc12 (stereo not given) | 13.3%
O=C(C=Cc1ccc(F)c(Br)c1)N1CCC(CN2CCC(c3c[nH]c4ccccc34)CC2)CC1 | 6.62%
OC1(CNCc2ccccc2)CCN(CCc2c[nH]c3ccc(F)cc23)CC1 | 4.93%
CS(=O)(=O)Nc1ccc2[nH]cc(C3CCN(CC4CCC(NC(=O)/C=C/c5ccc(Cl)c(Cl)c5)CC4)CC3)c2c1 (stereo not given) | 3.65%
CC[C@H]1CN2CC[C@H]1C[C@H]2[C@H](O)c1cc(N2CCCC2)nc2ccc(OC)cc12 | -0%
COc1cc2c(c(OC)c1OC)C[C@H]1c3c(cc4c(c3-2)OCO4)CCN1C | 0.74%
Cc1cccc(C(=O)Nc2ccnc(N(C)C3CCN(CC(C)C)CC3)c2)c1 | 2.78%
CS(=O)(=O)Nc1ccc2c(C3CCN(CC4CCN(C(=O)/C=C/c5ccc(Cl)c(Cl)c5)CC4)CC3)c[nH]c2c1 | 2.88%
CCCc1c(C(=O)NC2CCC(CN3CCC(c4c[nH]c5ccccc45)CC3)CC2)cnn1-c1c(Cl)cc(Cl)cc1Cl (stereo not given) | 9.93%
COC(=O)c1ccc(CC(C)NCC(O)c2cccc(Oc3cccc(C(F)(F)F)c3)c2)cc1 (stereo not given) | 11.3%
Oc1ccc(Cl)cc1CN1CCC(CCOC(c2ccccc2)c2ccccc2)CC1 | 0.78%
Cc1nc2ccccc2n1C1CC2CCC(C1)N2Cc1nccn1-c1ccccc1 (stereo not given) | 3.39%

SMILES | IFI
CCOC(C(=O)OCC1CCCN(C)C1)(c1ccccc1)c1ccccc1 (stereo not given) | 0.73%
O=C(/C=C/c1ccc(Cl)c(Cl)c1)N1CCC(CN2CCC(c3c[nH]c4cc5c(cc34)OCO5)CC2)CC1 | 5.34%
CC(Cc1ccc(SC(C)(C)C)cc1)NCC(O)c1cccc(Cl)c1 (stereo not given) | 5.07%
CC(C)CNCc1cccc(-c2cccc(CN(C(=O)NC3CCCCC3)C3CCN(Cc4ccccc4)CC3)c2)c1 | 8.15%
COC(=O)c1ccc(C[C@@H](C)NC[C@H](O)c2cccc(C(F)(F)F)c2)cc1 | 1.5%
COc1cc(CN2CCN(c3ccnc(N(C)C4CCN(C)CC4)n3)CC2)cc(Cl)c1O | -0%
COc1ccc(C(=O)C2CC2CN2CC=C(c3c(C)[nH]c4ccccc34)CC2)cc1 (stereo not given) | 1.85%
O=C(/C=C/c1ccc(Cl)c(Cl)c1)N(Cc1ccccc1)C1CCC(CN2CCC(c3c[nH]c4ccccc34)CC2)CC1 (stereo not given) | 5.07%
CN1CC=C(c2csc3ccc(NC(=O)Nc4ccc(-c5ccncc5)c(Cl)c4)cc23)CC1 | 5.88%
CC[C@H]1CN2CC[C@H]1C[C@H]2[C@H](O)c1cc(-c2ccc(OC(F)(F)F)cc2)nc2ccc(OC)cc12 | 8.97%
NC(=O)c1ccc2[nH]cc(C3CCN(CC4CCC(NC(=O)/C=C/c5ccc(Cl)c(Cl)c5)CC4)CC3)c2c1 (stereo not given) | 3.57% and 1.43%
CN(C)c1cccc(CN2CC=C(c3c[nH]c4ccc(Cl)cc34)CC2)c1 | 10.1%
CCCCCCC(C)c1cc(O)c2c(c1)OC(C)(C)c1ccncc1-2 (stereo not given) | 0.75%
CS(=O)(=O)Nc1ccc2[nH]cc(C3CC4CCC(C3)N4CC3CCC(NC(=O)/C=C/c4ccc(Cl)c(Cl)c4)CC3)c2c1 (stereo not given) | 4.14%
CN(C)CCCOc1ccc(CN2CCC(c3c[nH]c4ccc(NCC5CCCCC5)cc34)CC2)cc1 | 14.1%
CC(C)NC(=O)Cn1cc(C2CCN(CC3CCN(C(=O)/C=C/c4ccc(Cl)c(Cl)c4)CC3)CC2)c2ccccc21 | 3.33%
CC[C@H]1CN2CC[C@H]1C[C@H]2[C@H](O)c1cc(N2CCCC(C(=O)N(CC)CC)C2)nc2ccc(OC)cc12 (stereo not given in full) | 3.08%
COc1cccc(C=CC(=O)NC2CCC(CN3CCC(c4c[nH]c5ccccc45)CC3)CC2)c1OC (stereo not given) | 5.97%
Cc1cc(C(=O)NC2CCN(CC3(c4ccc(Cl)cc4)CCC3)CC2)on1 | -0%
c1ccc2c(NCCCCCCNc3c4ccccc4nc4ccccc34)c3ccccc3nc2c1 | 9.22%
Cn1nc(-c2ccc(S(=O)(=O)NC3CCC(CN4CCC(c5c[nH]c6ccccc56)CC4)CC3)s2)cc1C(F)(F)F (stereo not given) | 5.67% and 7.09%
O=C(Cc1c(-c2ccccc2)[nH]c2ccccc12)NC1CCC(CN2CCC(c3c[nH]c4ccccc34)CC2)CC1 (stereo not given) | 10.3%
Cc1cc(C2CCCCN2C)ccc1-c1ccc(C(=O)N2CCc3cc4c(cc32)C2(CCN(C)CC2)CO4)cc1 (stereo not given) | 8.21%
COC(=O)c1ccc(CC(C)NCC(O)c2ccc(F)c(Cl)c2)cc1 (stereo not given) | 2.86%
COc1ccc(CC(C)NCC(O)c2cccc(C(F)(F)F)c2)cc1 (stereo not given) | 3.76%

SMILES | IFI
CCCCc1ccc2[nH]cc(C3=CCN(C)CC3)c2c1Br | 2.19%
CC(Cc1ccc(OCCCCOc2ccccc2)cc1)NCCc1ccccc1Cl (stereo not given) | 28%
COc1cc(NCCCNC(=O)c2cn(Cc3ccccc3)c3ccccc23)nc2ccccc12 | 1.49%
CCOc1ccc2nccc([C@@H](O)[C@@H]3C[C@@H]4CCN3C[C@@H]4CC)c2c1 | -0% and 0.78%
O=C(/C=C/c1ccc(Cl)c(Cl)c1)N1CCC(CN2CCC(c3c[nH]c4ccc(NS(=O)(=O)c5cccs5)cc34)CC2)CC1 | 6.43%
CC(=O)C1(c2ccccc2)CCN(CCC2(c3ccc(Cl)c(Cl)c3)CN(C(=O)Nc3cccc(C(F)(F)F)c3)CCO2)CC1 (stereo not given) | 5.37%
COc1ccc(C=CC(=O)NC2CCC(CN3CCC(c4c[nH]c5ccccc45)CC3)CC2)cc1 (stereo not given) | 7.19% and 5.04%
O=C(O)c1ccc2nc(-c3ccc(-c4ccccc4)cc3)n(C3CCN(Cc4ccc(-c5ncc[nH]5)cc4)CC3)c2c1 | 4.08%
COC(=O)c1ccc(CC(C)NCC(O)c2cccc(Br)c2)cc1 (stereo not given) | 2.84%
O=C(/C=C/c1ccc(Cl)c(Cl)c1)NCCCCCN1C2CCC1CC(c1c[nH]c3ccc(O)cc13)C2 (stereo not given) | 8.03% and 8.82%
Oc1ccc(Cl)cc1CN1CCC(CCOC(c2ccccc2)c2ccc(Cl)cc2)CC1 (stereo not given) | 3.13%
CC(=O)N(Cc1ccc(-c2ccc(CNCCc3ccccc3)cc2)cc1)C1CCN(Cc2ccccc2)CC1 | 6.02%
CN1CC(c2ccc(Cl)c(Cl)c2)OC1=N (stereo not given) | 3.01%
Cc1cc(N(C)C2CCN(C)CC2)nc(Nc2ccc(Br)cc2)n1 | 2.41%
O=C(CNC1CCCCC1)c1ccc(O)c(O)c1 | 9.02%
CCCCCCC(C)(C)c1cc(O)c2c(c1)OC(C)(C)c1ccncc1-2 | 3.05%
O=C(NC1CCN(CC2(c3ccc(Cl)cc3)CCC2)CC1)c1cc[nH]n1 | 4.26%
COC(=O)c1ccc(CC(C)NCC(O)c2cccc(C(F)(F)F)c2)c(OC)c1 (stereo not given) | 3.65%
CN(c1cc(NC(=O)c2ccccc2)ccn1)C1CCN(Cc2cccc(F)c2)CC1 | 2.94%
Cc1cc(O)cc2c(C3CCN(CC4CCC(NC(=O)/C=C/c5ccccc5Cl)CC4)CC3)c[nH]c12 (stereo not given) | 7.3%
c1ccc(C(OCCC2CCN(Cc3cccnc3)CC2)c2ccccc2)cc1 | 0.79%
CCN(CC)CCOC(=O)C(OC)(c1ccccc1)c1ccccc1 | 2.21%
COC(C(=O)OCCC1CCCN1C)(c1ccccc1)C1CCCCC1 (stereo not given) | 1.45%
O=C(/C=C/c1cc(C(F)(F)F)ccc1F)NC1CCC(CN2CCC(c3c[nH]c4ccccc34)CC2)CC1 (stereo not given) | 2.27%
COc1cccc(/C=C/C(=O)NC2CCC(CN3CCC(c4c[nH]c5ccccc45)CC3)CC2)c1 (stereo not given) | 5.63% and 4.17%
